This data set is described as follows: soluble fraction after stress (log2 fold change); higher = more stays soluble; pooled small domains, quantitative proteomics. As to conditions: stress: 50 degC. In short, it runs like this: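 Quantitative proteomics served as the high-throughput read-out for pooled custom libraries of small protein domains. Each was stressed at 50°C. Aggregation propensity is expressed as the base-two log fold change in soluble protein after stress. A higher value means a larger share of the protein remains in solution.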

Turning to “HMEVITIENEDAFTEGRAFAHSEGILVGISSGAALKAATILAERPENKGKTIVALLPDSGDRYLSTALFA”, the “soluble fraction (log2)” value is 0.042. In the case of “HMGGKYKPLILWHLIEGTKRFSALQRLLPQATPRMLTMNLRELESDGLVHRKVYPEVPPKTEYSLSDLGK”, the “soluble fraction (log2)” value is -0.319.

The values are drawn from the domain aggregation screens of Martell et al. (2025).
